Measured values published in article PMC4336329 (PLoS ONE, 2015).
Out of some 310,000 compounds screened, about 14,000 (4.5%) showed an effect of 50% or more. The effect is printed as a negative number. The list shows a part of the results.

Target: human ether-à-go-go-related gene (hERG) potassium channel (human, UniProt Q12809)
Test: primary screen, population patch clamp on CHO cells stably expressing hERG
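Also: peak tail current of the secondary pulse compared with the same well before compound.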

Chain of human ether-à-go-go-related gene (hERG) potassium channel (Q12809 whole entry, looked up): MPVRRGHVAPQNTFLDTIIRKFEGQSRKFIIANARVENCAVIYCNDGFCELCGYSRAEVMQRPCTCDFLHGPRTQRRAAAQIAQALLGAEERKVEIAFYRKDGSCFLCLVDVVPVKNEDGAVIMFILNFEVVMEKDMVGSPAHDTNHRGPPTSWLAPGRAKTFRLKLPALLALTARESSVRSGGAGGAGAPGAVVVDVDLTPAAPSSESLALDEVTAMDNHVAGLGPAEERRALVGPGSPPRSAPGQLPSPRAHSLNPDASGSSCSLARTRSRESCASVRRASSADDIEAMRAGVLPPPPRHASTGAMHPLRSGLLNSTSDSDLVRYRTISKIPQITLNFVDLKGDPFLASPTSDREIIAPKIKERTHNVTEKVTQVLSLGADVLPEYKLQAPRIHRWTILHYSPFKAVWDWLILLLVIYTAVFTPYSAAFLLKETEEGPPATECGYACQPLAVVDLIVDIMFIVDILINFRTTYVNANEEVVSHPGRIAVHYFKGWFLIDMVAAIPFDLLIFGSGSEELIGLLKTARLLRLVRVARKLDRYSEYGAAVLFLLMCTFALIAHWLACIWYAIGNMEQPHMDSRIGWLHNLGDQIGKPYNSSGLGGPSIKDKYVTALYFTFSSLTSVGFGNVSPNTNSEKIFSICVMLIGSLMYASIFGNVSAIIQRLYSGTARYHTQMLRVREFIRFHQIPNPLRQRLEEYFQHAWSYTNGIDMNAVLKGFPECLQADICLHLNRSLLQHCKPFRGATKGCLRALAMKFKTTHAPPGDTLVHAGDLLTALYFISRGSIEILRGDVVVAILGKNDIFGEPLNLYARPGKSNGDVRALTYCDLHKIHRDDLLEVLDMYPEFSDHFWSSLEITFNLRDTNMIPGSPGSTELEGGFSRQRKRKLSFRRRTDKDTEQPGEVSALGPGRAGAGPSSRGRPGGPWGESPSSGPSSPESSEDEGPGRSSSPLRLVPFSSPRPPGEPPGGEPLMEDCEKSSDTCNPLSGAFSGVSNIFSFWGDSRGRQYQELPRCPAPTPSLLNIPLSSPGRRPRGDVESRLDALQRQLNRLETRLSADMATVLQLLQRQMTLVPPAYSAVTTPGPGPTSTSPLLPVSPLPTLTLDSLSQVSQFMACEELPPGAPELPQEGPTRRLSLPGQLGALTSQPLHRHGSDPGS

Row | SMILES | hERG current change (%, negative = inhibition) at 10uM
1 | Cc1noc(C)c1COc1ccc(C(=O)OCC(=O)c2ccc3c(c2)OCCO3)cc1 | 5.49%
2 | CCC(C)NC(=O)CC(NS(=O)(=O)c1ccc(Cl)cc1)c1ccco1 (centres unmarked) | 5.63%
3 | COc1ccc(NC(=O)CCCCCn2nnc3ccccc3c2=O)cc1 | 16.4%
4 | O=C(NCC1CCCCC1)c1ccc(Cl)nc1 | 16.8%
5 | COc1cccc(-c2ccc(SCC(=O)c3ccccc3)nn2)c1 | -22.1%
6 | COc1ccc(C(=O)Nc2ccccc2C(=O)NC(C(=O)NCc2ccco2)C(C)C)cc1 (centres unmarked) | 1.69%
7 | CCc1cc2c3c(c1)C(C)CC(C)(C)N3C(=O)/C2=C1\SC(=O)NC1=O (centres unmarked) | 2.96%
8 | CC1(C)CC(=O)C2=C(C1)Nc1cc(C(=O)c3ccccc3)ccc1NC2c1ccccn1 (centres unmarked) | -11.6%
9 | Cc1ccc(N(CCC#N)C(=O)COC(=O)C2CCN(S(=O)(=O)c3ccc4c(c3)OCCO4)CC2)cc1 | 7.24%
10 | CCC(=O)c1ccc(OCC(O)CN2CCN(c3cccc(C(F)(F)F)c3)CC2)cc1 (centres unmarked) | -55.2%
11 | C[C@H](NC(=O)c1ccco1)C(=O)Nc1ccc(S(=O)(=O)N2CCCC2)cc1 | 1.53%
12 | COC(=O)c1ccc(N2CCN(S(=O)(=O)c3ccc(Br)cc3)CC2)c([N+](=O)[O-])c1 | 10.6%
13 | CC(CNC(=O)c1cccc(Br)c1)n1cncn1 (centres unmarked) | 15.2%
14 | COc1ccc(S(=O)(=O)N2CCC(C(=O)NC3CCCCC3)CC2)cc1C | 8.8%
15 | COC(=O)c1sc(-c2ccccc2)cc1NC(=O)c1ccc(OC)cc1 | 15.2%
16 | COc1ccc(Cc2nnc(NC(=O)c3ccc(OC)c(OC)c3)s2)cc1 | 14.7%
17 | CCc1noc(C)c1C(=O)Oc1ccc(N(C)S(=O)(=O)c2ccccc2)cc1 | 1.2%
18 | CCN(CC)CCCNc1nc2ccccc2[nH]1 | -2.62%
19 | Cc1ccc(-n2ncc3c(Nc4c(C)n(C)n(-c5ccccc5)c4=O)ncnc32)c(C)c1 | 11.7%

Row | SMILES | hERG current change (%, negative = inhibition) at 10uM
20 | CC(C)(C)c1ccc(Cn2ccc(-c3ccc4c(c3)OCO4)n2)cc1 | 15.4%
21 | Cc1ccc(S(=O)(=O)N(CC(O)CN2CCOCC2)c2cccc([N+](=O)[O-])c2)cc1 (centres unmarked) | -34.5%
22 | CCOC(=O)CSc1nnc(CNc2ccc(F)cc2)o1 | -6.08%
23 | C=CCNc1scc(-c2ccccc2)[n+]1CC=C.[Br-] | -21.4%
24 | N#Cc1cc(-c2ccccc2)cnc1Sc1ccc(Cl)cc1 | -7.54%
25 | COc1cccc(-c2noc(-c3cccs3)n2)c1 | -3.5%
26 | CCOC(=O)c1ccc(NC(=O)c2cc3ccccc3o2)cc1 | -4.42%
27 | C/C(=N\NC(=O)c1cccc(Br)c1)c1ccccn1 | 7.05%
28 | COc1ccccc1C(CCNS(=O)(=O)c1ccc(C)cc1)c1ccco1 (centres unmarked) | -0.00752%
29 | Cc1ccnc(Cc2ccccc2)n1 | 17.4%
30 | O=C1CC(c2c[nH]c3ccccc23)C(=O)N1 (centres unmarked) | 5.22%
31 | COc1ccccc1-n1nnnc1SCC(=O)Nc1ccc(C)c(N)c1 | 19.9%
32 | COc1ccc(NC(=O)C2CC(=O)OC23CCCCC3)cc1 (centres unmarked) | -10.7%
33 | COc1ccc(-c2cc(C(=O)N3CCN(c4ccccc4OC)CC3)no2)cc1 | 10.5%
34 | COc1cccc(/C=C/C(=O)c2ccc(NC3=NCCCS3)cc2)c1 | -28.8%
35 | C/C(=N/NC(=O)CNC(=O)COc1cccc(C)c1)c1ccc(Cl)cc1 | 7.95%
36 | Nc1nc(N)c(N=Nc2ccc(Cl)cc2)c(=O)[nH]1 | 6.7%
37 | O=C(NCCN1CCN(c2ccccc2)CC1)Nc1cccc(Cl)c1 | -55.7%
38 | CCn1nnc(NC(=O)c2ccc(Br)o2)n1 | 13.7%

Row | SMILES | hERG current change (%, negative = inhibition) at 10uM
39 | Cc1cc(NS(=O)(=O)c2c(C)c(C)cc(C)c2C)no1 | 1.18%
40 | NS(=O)(=O)c1ccc(CCNC(=O)C2CCC(CNS(=O)(=O)c3ccc(Br)s3)CC2)cc1 (centres unmarked) | 32.2%
41 | CCC1Oc2ccc(C)cc2N(CC(=O)NCCN2CCOCC2)C1=O (centres unmarked) | 2.28%
42 | Cc1nc2c(n1C1CCCCC1)C(=O)c1ccccc1C2=O | 14.7%
43 | CC1CCN(c2ccc(NC(=O)c3cccnc3)cc2)CC1 | -3.1%
44 | COc1ccc(NC(=O)Nc2ccc3c(c2)N(C)C(=O)CS3)cc1Cl | 0.0848%
45 | Cc1ccc(C(c2nnnn2C2CCCCC2)N2CCc3ccccc32)cc1 (centres unmarked) | 1.37%
46 | Cn1nc(C(=O)Nc2nc(-c3ccc(F)cc3)cs2)ccc1=O | 5.72%
47 | O=C(Cn1nc(Cc2cccnc2)c2ccccc2c1=O)NCc1ccc2c(c1)OCO2 | -25.8%
48 | Cc1c(C(=O)N2CCCCC2)c(S(=O)(=O)N2CCN(c3ccccc3F)CC2)c(C)n1C | 7.03%
49 | COc1ccc(C(=O)NCc2nnc(SCC(=O)c3ccccc3)n2C)cc1 | -15.9%
50 | Cc1ccc(NC(=O)CS(=O)Cc2nc(-c3ccc(C)cc3)oc2C)cc1 (centres unmarked) | -27.3%
51 | Cc1[nH]c2ccc(Br)cc2c(=S)c1C/C=C/Cl | -4.28%
52 | Cc1nn(-c2ccccc2)c(Cl)c1/C=C/C(=O)c1ccc(O)cc1 | 5.38%
53 | Cc1c(C(=O)N2CCN(c3ccccc3)CC2)sc2nc3n(c(=O)c12)CCC3 | 6.84%
54 | CCCCNC(=O)c1ccc2c(c1)S(=O)(=O)c1ccccc1C2=O | -27.9%
55 | COc1ccc(N2CCN(C(=O)C3CCN(S(=O)(=O)c4cccs4)CC3)CC2)cc1 | -49.3%
56 | O=C(OCC1CC(c2ccccc2Cl)=NO1)c1ccc(Br)cc1 (centres unmarked) | 4.88%
